Measurements from PubChem BioAssay AID485344 (National Center for Advancing Translational Sciences (NCATS), 2010).
Hit rate of the full screen: of about 340,000 compounds, about 6,900 (2%) were called active. No stated cut-off is given here; in the data, active means inhibition above about 30%; inactive means below that, where a call was filed. This is a selection; strong and weak results do not stand in their true shares. Entries without a call were filed so in the source.

molecular target: D(2) dopamine receptor (Homo sapiens) (UniProt P14416); assay: HTS Assay for Allosteric Antagonists of the Human D2 Dopamine Receptor: Primary Screen for Antagonists; conditions: HEK293 TREx D2 cells, calcium flux, dopamine EC80; at 10 µM; stronger effect = higher value; further: 0% is about no effect
UniProt P14416, sequence (P14416 whole entry, looked up): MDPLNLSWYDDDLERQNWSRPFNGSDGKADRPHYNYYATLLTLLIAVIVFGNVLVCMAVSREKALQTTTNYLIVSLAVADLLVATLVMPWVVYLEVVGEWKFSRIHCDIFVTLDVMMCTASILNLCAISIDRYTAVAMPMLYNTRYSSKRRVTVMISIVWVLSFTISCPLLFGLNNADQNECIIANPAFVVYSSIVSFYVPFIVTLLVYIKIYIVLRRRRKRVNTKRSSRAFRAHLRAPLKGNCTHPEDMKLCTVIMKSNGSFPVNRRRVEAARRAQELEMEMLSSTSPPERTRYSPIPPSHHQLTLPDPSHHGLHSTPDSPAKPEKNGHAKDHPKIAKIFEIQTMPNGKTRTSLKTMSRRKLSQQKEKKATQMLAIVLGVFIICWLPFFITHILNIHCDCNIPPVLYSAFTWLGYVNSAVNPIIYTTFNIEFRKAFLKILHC
Method in brief: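 Overnight-induced (tetracycline, 30 C) HEK293 T-REx cells carrying force-coupled D2 receive a no-wash calcium dye, then compound, then EC80 dopamine at 180 s; signals are read kinetically throughout.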

SMILES	inhibition
CCC(=O)N1CCc2cc(CNC(=O)Cc3ccc(F)cc3)ccc21	-1.03%
CCn1nnc2cc(C(=O)Nc3ccc(C)c(Cl)c3)ccc21	-0.454%
CCn1nc(-c2ccccc2)c(-c2ccccc2)c(C(=O)Nc2nc(C)c(C(C)=O)s2)c1=O	-6.04%
CCC(=O)N1CCc2cc(CNC(=O)c3ccc(OC)cc3)ccc21	2.36%
CCCCn1cc(S(=O)(=O)c2ccc(C)c(C)c2)c(=O)c2cc(F)c(N(CC)CC)cc21	9.41%
CCOC(=O)CNc1ccc2c(c1)OCO2	active: 39.9%
COc1ccc(-c2nc(CN3CCC(C(=O)NCCc4ccccc4)CC3)c(C)o2)cc1OC	5.08%
Cc1ccc(NC(=O)CSc2nc(=O)n(Cc3ccco3)c3c2CCC3)cc1F	24.2%
Cn1c(-c2ccc(Br)cc2)cnc1NCc1cccnc1	active: 42.9%
CCn1c(=O)cc(SCC(=O)NCCCN2CCN(c3ccc(F)cc3)CC2)c2ccccc21	active: 65.8%
O=C(Nc1sc2c(c1C(=O)Nc1cccc(Cl)c1)CCCC2)c1cccs1	-12.5%
Cn1c(=O)c(=O)n(C)c2cc(N3CCCC3)c(NC(=O)c3ccccc3F)cc21	-13.7%
O=C1C2CCCN2C(=O)N1CCN1CCN(c2ccccc2)CC1 (stereo not drawn)	active: 70.8%
CCOc1ccc(S(=O)(=O)N(CC(=O)NCCSc2ccc(C)cc2)c2ccccc2)cc1	4.67%
Cc1ccc(NC(=O)N2CCN(c3ccc(Cl)c(Cl)c3)CC2)cc1	4.68%
CCc1nnc(SCC(=O)Nc2cc(OC)ccc2OC)nc1CC	4%
CCN(Cc1ccccc1)C(=O)c1cc2c(=O)[nH]c3ccc(C)cc3c2s1	11.4%
Cc1cccc(Cn2c(COc3ccc(Cl)cc3)nc3ccccc32)c1	-2.41%
Cc1ccc(CCNC(=O)c2cc3n(n2)CCCN(Cc2ccc(C)cc2)C3=O)cc1	2.09%
Cc1nc2nc(NC(=O)CC(C)C)[nH]n2c(=O)c1Cc1ccccc1	-4.07%
CCc1ccccc1NC(=O)Cc1ccc(NC(=O)N2CCCCc3ccccc32)cc1	0.307%
c1ccc2c(c1)CCc1c-2nc2ccccc2c1N1CCOCC1	active: 36.6%
CCS(=O)(=O)c1ncc(Cl)c(C(=O)Nc2c(C(=O)Nc3cccc(C)c3)oc3ccccc23)n1	12.6%
Cc1ccc(-c2c(C(=O)N3CCN(c4cc(Cl)ccc4C)CC3)oc(=O)c3ccccc23)cc1	3.41%

SMILES	inhibition
COc1ccc(C)cc1NC(=O)c1cc2c(=O)n(Cc3cccnc3)ccc2nc1C	4.95%
CCc1cccc(NC(=O)Nc2cccs2)c1	active: 32.4%
COc1ccc2c(c1)c1c(c(=O)n(-c3ccccc3C)c(=O)n1C)n2C	4.44%
CCN(CC)S(=O)(=O)c1cccc(C(=O)Nc2sc3c(c2C#N)CCC(C)C3)c1 (stereo not drawn)	-6.61%
Cc1cc(C)c(S(=O)(=O)N2CCC(N3CCN(Cc4ccccc4)C(=O)C3=O)CC2)c(C)c1	-2.01%
CCN(CC)CCNC(=O)c1cn(CCOC)c(=O)c2c1c1ccccc1n2C	4.24%
COc1ccc(CNCc2c(C(=O)O)c(C)n(Cc3ccccc3C)c2C)c(OC)c1	8.19%
COc1ccc(-n2ncc(C(=O)N3CCN(c4cc(C)ccc4C)CC3)c2C2CCN(C(=O)OC(C)(C)C)CC2)cc1	-13.6%
CCCCNC(=O)C1CCN(c2nc3ccccc3nc2C(F)(F)F)CC1	6.66%
Cc1ccc(Cl)cc1N1CCN(c2ncnc3c2nc2n3CCCCC2)CC1	-4.92%
COc1ccc(Nc2cc(C)c3cc(NC(=O)Cc4ccc(Cl)cc4)ccc3n2)cc1	10.6%
Cc1nnc(NC(=O)CSc2nccn2Cc2ccc(Cl)cc2)s1	14.8%
O=C(CSc1cn(CCNC(=O)c2c(F)cccc2F)c2ccccc12)Nc1ccc(F)cc1	-0.745%
CC1CCCN(Cc2nc3c(c(=O)n(C)c(=O)n3C)n2Cc2ccc(Cl)cc2)C1 (stereo not drawn)	-15.8%
O=C(Nc1cc(Cl)ccc1Cl)c1cc2nc(-c3ccc4c(c3)OCO4)cc(C(F)(F)F)n2n1	-1.06%
Cn1nc(C(=O)NCc2ccccc2Cl)c2c1-c1ccccc1S(=O)(=O)C2	5.5%
CSc1ccc(CNC(=O)C2CCN(c3nc4ccccc4nc3C(F)(F)F)CC2)cc1	9.46%
Cc1cc(C)cc(NC(=O)CSc2oc(-c3ccco3)nc2S(=O)(=O)c2ccc(Cl)cc2)c1	19.4%
CCc1ccc(C(=O)N2CCC(c3nc(-c4ccc(S(=O)(=O)N5CCCC5)cc4)no3)CC2)cc1	6.39%
O=C(O)c1ccc(CNCc2ccccc2Cl)s1	-2.84%
O=C1C(Cl)=C(NCCN2CCOCC2)C(=O)c2ccccc21	active: 36.2%
Cc1ccc(CNC(=O)CCCCCn2c(=O)c3sccc3n(CC(=O)Nc3c(C)cc(C)cc3C)c2=O)cc1	-13.4%
CCCOc1ccc(CNC(=O)CCCn2nc(C)c3sc4ccccc4c3c2=O)cc1	-13.3%
CCCSc1ncc(Cl)c(C(=O)Nc2c(C(=O)Nc3ccc(OC)cc3)oc3ccccc23)n1	-15.8%
